# Reference: PubChem BioAssay AID1508642 (National Center for Advancing Translational Sciences (NCATS), 2021)
# Screen size: about 43,000 compounds; about 200 (0.47%) were called active. Roughly 12% stayed inconclusive and do not appear here. Calls follow the shape of the dose curve; as a rule, active = well fitted cell-killing curve with a large enough effect; inconclusive = small, poorly fitted or top-dose-only effect, or effect the other way; inactive = flat fitted curve, though single readings scatter. The list shows a part of the results.
# Assay: Cell viability qHTS assay in S16 Pmp22-F2sN cells; also: nearly all actives have a fitted effect of over 65% in size
# Conditions: S16 Pmp22-F2sN Schwann cells viability, CellTiter-Glo, 24 h; series mostly up to 57.5 µM; activity change, negative = cytotoxicity: at the top concentration
# Procedure, shortened: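 Viability was measured by CellTiter-Glo luminescence (15 min, room temperature). This followed 24 h at 37 °C of compound exposure (23 nL pin transfer) in S16 Pmp22-F2sN Schwann cells, 500-1,000 per well.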
# % is scaled to controls: 0 for no effect and ±100 for the full control effect; potency is read from the fitted curve at half-maximal effect.
SMILES,"activity change, negative = cytotoxicity",Potency
CCOC(=O)c1c(S(=O)(=O)N2CCCC(C(=O)Nc3ccccn3)C2)c(C)n(C)c1C (centres undefined),inactive: -0.675%,–
Cc1nc(-c2cccc(NC(=O)Nc3ccccc3C(F)(F)F)c2)no1,inactive: 1.38%,–
CCc1ccc(-n2c(=O)c3sc4ccccc4c3n(CC(=O)N3CCCC3)c2=O)cc1,inactive: 9.02%,–
O=C(CSc1nc2ccsc2c(=O)n1Cc1ccccc1Cl)NCc1ccc(F)cc1,inactive: 7.98%,–
CCCOc1cccc(C2c3c(oc4ccccc4c3=O)C(=O)N2c2nncs2)c1 (centres undefined),inactive: 2.46%,–
Cc1ccc(C)c(Cn2c(CCCNC(=O)C3CCCCC3)nc3ccccc32)c1,inactive: -20.6%,–
Cc1nc(C)c(-c2ccc(SCC(=O)Nc3cccc(C)c3C)nn2)s1,inactive: -6.64%,–
Cc1ccc(CNC(=O)CSc2nc3ccsc3c(=O)n2-c2ccc(Br)cc2)cc1,inactive: 3.87%,–
Cn1c(C(=O)NCCc2ccccc2)cc2sc(Cl)cc21,inactive: -4.62%,–
CCc1ccc(C2C(C(=O)Nc3ccccc3OC)=C(C)Nc3nc(SCc4ccccc4)nn32)cc1 (centres undefined),inactive: 1.91%,–
CCOc1ccc(CNC(=O)CN2N=C(c3ccccc3)CCC2=O)cc1OC,inactive: 8.46%,–
Cc1ccc(-n2ncc(C(=O)NCCN3CCN(C)CC3)c2C2CCN(C(=O)OC(C)(C)C)CC2)cc1,inactive: 0.76%,–
CCOc1ccc(Nc2nc(C)c(NC(=O)c3cccc(F)c3)c(Nc3ccc(OCC)cc3)n2)cc1,inactive: 0.231%,–
CCC1Oc2ccc(C)cc2N(CC(=O)N2CCN(c3ccccc3OC)CC2)C1=O (centres undefined),inactive: 3.31%,–
Cc1noc(C)c1S(=O)(=O)N(CC(=O)NCCc1ccc(Cl)cc1)c1ccc(C(C)C)cc1,inactive: 0.201%,–
Cc1ccccc1C(=O)NNc1ncnc2c1cnn2-c1cccc(Cl)c1,inactive: 23.4%,–
Cc1ccc(Cn2c(CNC(=O)c3ccc(Cl)c([N+](=O)[O-])c3)nc3cccnc32)cc1,inactive: -0.704%,–
CCCc1ccc(NC(=O)C2CCCN(c3cnccn3)C2)cc1 (centres undefined),inactive: 0.0566%,–
CCc1ccc(NC(=O)C2CCN(S(=O)(=O)c3cccc(-c4noc(C)n4)c3)CC2)cc1,inactive: -6.19%,–
Cc1ccc(Cl)cc1N1CCN(S(=O)(=O)c2ccc3c(c2)C(C(C)C)C(=O)N3)CC1 (centres undefined),inactive: -18.2%,–
O=C(COCc1cc(-c2cccs2)on1)NCc1ccc(F)cc1,inactive: 6.72%,–
O=C(Nc1ccc(Cl)cc1)c1ccc(-n2cnnc2)cc1,inactive: 2%,–
Cc1ccc(-n2ncc3c(N4CCN(Cc5ccccc5)CC4)ncnc32)cc1Cl,inactive: 0.927%,–
CC(C)c1ccc(NC(=O)C2CCCN2S(=O)(=O)c2ccc3nc(-c4ccccc4)[nH]c3c2)cc1 (centres undefined),inactive: -1.85%,–

SMILES,"activity change, negative = cytotoxicity",Potency
O=S(=O)(c1ccc(-c2csc(=Nc3ccc(F)cc3)n2CCCCCCO)cc1)N1CCCC1,–,active: 17.8 µM
Cc1cccc(OCC(=O)Nc2ccc3c(c2)nc(CN2CCCCC2)n3C)c1,inactive: -23%,–
CCCc1nnc(NC(=O)Cc2coc3c(C)c(C)ccc23)s1,inactive: -2.86%,–
COc1ccc(C(=O)N(Cc2sccc2C)C2CCS(=O)(=O)C2)cc1 (centres undefined),inactive: -4.5%,–
COc1cc(NC(=O)Cn2ccc3ccccc3c2=O)cc(OC)c1OC,inactive: -0.686%,–
CCOCCCn1c(SCC(=O)Nc2ccc(CC)cc2)nc2ccccc2c1=O,inactive: -7.53%,–
Cc1ccc2c(c1)Cc1c(nc(-c3ccc(F)cc3)nc1SCC(=O)N1CCCCC1)O2,inactive: 3.54%,–
CCC(C)NC(=O)Cn1c(=O)n(-c2ccc(OC)c(OC)c2)c(=O)c2ccccc21 (centres undefined),inactive: 3.51%,–
CCOC(=O)C1CCN(C(=O)c2c(C)nn(-c3ccc(F)cc3)c2-n2cccc2)CC1,inactive: 29%,–
COc1ccc2cc(CCNS(=O)(=O)c3ccc(C)cc3)c(=O)[nH]c2c1,inactive: 9.72%,–
Cc1ccc(Nc2c(-c3cccnc3)nc3ccc(Cl)cn23)cc1,inactive: -2.27%,–
CCc1cccc(NC(c2ccccc2)c2nnc(-c3ccccc3F)o2)c1 (centres undefined),inactive: -24.1%,–
COc1ccc(C(=O)Nc2nnc(S(=O)(=O)N(C)c3ccc(C)cc3)s2)cc1,inactive: 2.72%,–
COc1ccc(C(=O)Nc2nnc(S(=O)(=O)N3CCN(c4ccc(F)cc4)CC3)s2)cc1,inactive: 6.79%,–
CCc1ccccc1Nc1ncnc2c1cnn2-c1ccc(C)cc1C,inactive: 24%,–
Cc1ccc(NC(=O)CSc2nc3c(sc4ccccc43)c(=O)n2CCCC(=O)NC2CCCC2)cc1C,inactive: 12.3%,–
COc1cccc(CNC(=O)c2cc3c(=O)n(Cc4cccnc4)ccc3nc2C)c1,inactive: -18.3%,–
CCOC(=O)c1c(C)[nH]c(C)c1S(=O)(=O)N1CCCC(C(=O)NCc2ccccc2Cl)C1 (centres undefined),inactive: -20%,–
COc1ccccc1CNC(=O)CN(c1ccccc1OC)S(C)(=O)=O,inactive: 0.564%,–
CCOc1ccc(-c2nonc2NC(=O)c2ccco2)cc1OCC,inactive: -3.43%,–
CCOC(=O)c1ccc(NC(=O)CC2C(=O)N(c3cccc(C)c3)C(=O)N2CCOC)cc1 (centres undefined),inactive: -8.54%,–
Cc1ccc(OCC(=O)Nc2nnc(SCc3cc(=O)n4cccc(C)c4n3)s2)cc1,inactive: 2.69%,–
CCOc1cc(CNC(=O)NC2COc3ccccc3C2)cc(OCC)c1OCC (centres undefined),inactive: 1.04%,–
CCCCN(CC)CCCNC(=O)c1cc2c(=O)oc3ccc(C)cc3c2s1,inactive: 5.93%,–

SMILES,"activity change, negative = cytotoxicity",Potency
CC1=C(C(=O)N2CCN(c3ccc(Cl)cc3)CC2)C2(CCC(C)CC2)OC1=O (centres undefined),inactive: -14.7%,–
O=C(COc1ccc(Cl)cc1)NCC(c1cccs1)S(=O)(=O)c1ccc(F)cc1 (centres undefined),inactive: -0.301%,–
COc1ccc(-c2nc3sc(CCNC(=O)C(=O)Nc4ccc(C)c(C)c4)c(C)n3n2)cc1,inactive: -0.66%,–
CCOC(=O)c1cc(-c2ccccc2)n(CC(=O)NCc2ccccc2)c1C,inactive: -4.78%,–
Cc1ccc(C)c(Cn2c(=O)n(CCCC(=O)NCCc3ccc(Cl)cc3)c(=O)c3ccccc32)c1,inactive: 19.8%,–
Cc1ccc(-c2cc3nccc(-c4cc([N+](=O)[O-])ccc4O)n3n2)cc1,inactive: 7.06%,–
CN(c1ccc(F)cc1)S(=O)(=O)N1CCCC(C(=O)NCCc2ccccc2)C1 (centres undefined),inactive: 12.6%,–
Cc1c(C(=O)OC2CCCCCC2)[nH]c2c1C(=O)CC(c1ccccc1)C2 (centres undefined),inactive: -3.31%,–
Cc1nc2ccc(S(=O)(=O)NC(CC(C)C)C(=O)NCc3ccc(Cl)cc3)cc2s1 (centres undefined),inactive: -0.466%,–
CCOc1ccc(S(=O)(=O)NCc2nc3cccnc3n2Cc2ccccc2OC)cc1,inactive: 0.0615%,–
CCOC(=O)C1CCN(C(=O)c2ccc3c(c2)sc2nc(-c4ccc(OC)cc4)cn23)CC1,inactive: -2.53%,–
CCCOc1ccc(-c2nc3ccc(Br)cc3c(=O)o2)cc1,inactive: 1.51%,–
CCCCNC(=O)CSc1nc2n[nH]c(C)c2c(=N)n1-c1cccc(C)c1,inactive: -10.1%,–
CCOC(=O)c1cc(S(=O)(=O)Nc2c(C)cc(C)cc2C)[nH]n1,inactive: -1.76%,–
Cc1ccc2nc(-c3ccc(NC(=O)COc4ccccc4C(C)(C)C)cc3)sc2c1,inactive: 5.94%,–
C=CCc1cccc2cc(-c3nc4ccc(C(=O)O)cc4[nH]3)c(=O)oc12,inactive: 6.83%,–
COc1cc(NC(=O)CN2CCCN(S(=O)(=O)c3ccc(F)cc3)CC2)cc(OC)c1,inactive: 9.37%,–
O=C(Nc1ccccc1Br)c1cc(S(=O)(=O)NC2CCCCC2)ccc1F,inactive: -4.06%,–
COc1cc(-c2noc(-c3ccc(NC4CCCC4)c([N+](=O)[O-])c3)n2)cc(OC)c1OC,inactive: 1.67%,–
CCOC(=O)CCCCN(Cc1ccccc1F)S(=O)(=O)c1ccc(F)c(C(=O)Nc2cc(Cl)cc(Cl)c2)c1,inactive: -22.5%,–
O=C(NCc1ccc(F)cc1)c1nnc(Cc2cccc(F)c2)o1,inactive: -3.13%,–
COc1ccc(-c2noc(-c3cc(-c4ccc(F)cc4)n[nH]3)n2)cc1,inactive: 0.167%,–
CC(=O)NC(C)c1nc2ccccc2n1Cc1ccccc1Cl (centres undefined),inactive: 9.67%,–
CCOC(=O)N1CCN(c2ncc3c(n2)CC(c2ccc(Cl)cc2)CC3=O)CC1 (centres undefined),inactive: 8.22%,–

SMILES,"activity change, negative = cytotoxicity",Potency
Cc1ccc(C)c(NC(=O)C2CCCN2S(=O)(=O)c2ccc3c(c2)n(C)c(=O)c(=O)n3C)c1 (centres undefined),inactive: 9.13%,–
COc1ccc(C2C(C(=O)Nc3cccnc3)=C(C)Nc3nc(SCc4ccccc4)nn32)cc1 (centres undefined),inactive: 2.47%,–
CCOCCCNC(=O)c1ccc(Cn2c(=O)c3cccn3c3cccnc32)cc1,inactive: 21.3%,–
Cc1c(C(=O)N2CCCC2)oc2c1-c1nn(CC(=O)NC(C)c3ccccc3)cc1CC2 (centres undefined),inactive: -6.29%,–
CCC(C(=O)Nc1cc(OC)ccc1OC)n1c(C)c2cnn(-c3ccccc3)c(=O)c2c1C (centres undefined),inactive: -3.55%,–
COc1ccc(-n2ccn(CC(=O)NCc3ccc(C)cc3)c(=O)c2=O)cc1OC,inactive: 0.464%,–
COc1ccc(CC(=O)NCC(c2cccs2)S(=O)(=O)c2ccc(Cl)cc2)cc1 (centres undefined),inactive: -3.37%,–
COc1ccccc1C(=O)c1cn(CC(=O)Nc2ccccc2F)c2nc(C)ccc2c1=O,inactive: -1.18%,–
Cc1ccc(C)c(N2CCN(C(=O)c3cc(S(=O)(=O)N4CCC(C)CC4)cn3C)CC2)c1,inactive: -4.12%,–
Cc1ccc2oc(C(=O)Nc3cccc(-c4nc5ccccc5s4)c3)c(C)c2c1,inactive: 26.6%,–
Cc1ccc(Nc2ncc(C(=O)N3CCN(c4cccc(Cl)c4)CC3)c3ccccc23)cc1Cl,inactive: 14.4%,–
COc1ccccc1Cn1cc(C(=O)c2ccc(F)cc2)c(=O)c2cc3c(cc21)OCO3,inactive: -0.969%,–
Cc1cccc(C)c1OCC(=O)Nc1c(C(=O)c2ccc(Br)cc2)oc2ccccc12,inactive: -5.56%,–
O=C(CN1C(=O)COc2ccc(S(=O)(=O)N3CCCCCC3)cc21)N1CCN(c2cccc(C(F)(F)F)c2)CC1,inactive: 1.37%,–
COc1ccc2c(CNCCc3cccs3)c(C(=O)O)n(Cc3ccccc3C)c2c1,inactive: 4.91%,–
Cc1cccc(N2CCN(C(=O)C3CCN(S(=O)(=O)c4c(C)noc4C)CC3)CC2)c1C,inactive: 1.91%,–
COc1ccc2oc(=O)c(-c3cn4c(n3)sc3cc(F)ccc34)cc2c1,inactive: 3.11%,–
COc1ccc(-c2noc(N3CCC(C(=O)N(C)c4cc(Cl)ccc4OC)CC3)n2)cc1,inactive: -20.2%,–
COc1ccc(CCNC(=O)CCc2cn(Cc3ccc(C)cc3)c3ccccc23)c(OC)c1OC,inactive: 1.07%,–
CCOc1cc2[nH]c(=O)n(CCCCC(=O)N3CCN(c4ccccc4)CC3)c(=O)c2cc1OCC,inactive: 4.69%,–
CCCCOc1ccc(S(=O)(=O)NCc2csc(-c3ccc(OC)cc3)n2)cc1,inactive: -1.32%,–
CCCn1c2ccccc2c2cnn(CC(=O)N(Cc3ccccc3)C(C)C)c(=O)c21,inactive: -7.36%,–
